# Data reported in the supplement of paper PMC11417369.
# Some of the results follow.
# Test system: PF3D7_0420300 AP2 domain 1 (GST-tagged)
# Assay: gcPBM binding intensity (ln(normalized median fluorescence intensity)); higher = stronger DNA binding
# How it was run: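 Binding intensity is defined as the maximum Masliner-normalised natural-log median intensity across replicate spots for either probe orientation. It was measured on an Agilent 4 × 180k array of primer-extended double-stranded 36-bp intergenic genomic probes and negative controls, to which GST-tagged P. falciparum DNA-binding domains made in E. coli were applied for 1 h in 1× PBS with 1% milk, 0.2 mg/ml BSA, 0.5% salmon testes DNA and 0.03% Triton X-100. Detection was by Alexa488 anti-GST antibody and scanning at 488 nm.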
row,Sequence,gcPBM binding intensity (ln)
1,TTTTTTTTTTATGAAAGTACATATGAAAAATACGAA [XGTACX_site3451],8.93
2,ATTAAATAAAAAAACACACACATATATACCTATATA [CACACA_site5837],9.95
3,AATAAAACATAATAATGTACTCAAAGGTTTAACTTG [XGTACX_site4711],9.29
4,CAAAACATTTTATCTACACACATATATAAATAAATA [CACACA_site3220],9.52
5,AAAATAAAAGAATAAAAATATGAAACTTTTTTAAAA [GTGCAC_negctrl_site348],9.05
6,AACGTGTGGAGAATTATAAATGAGTAAAAAATATAT [XGTACX_negctrl_site562],9.52
7,GGGGGGAGGGTGAATACACACGTAATAATCATAAAC [CACACA_site8502],10.3
8,TAATAATAGTAAATATGTACATATATATATATATAG [XGTACX_site4602],9.26
9,TAAAATTTACGGTCTTGTTGCGCAACCAACATTGTC [CACACA_negctrl_site1175],9.2
10,GTTTTTTTTTTTTTGGTGCGTCATTTTCAAAAGAAG [GTGCAC_site9745],9.25
11,AAAAAAGAAAAGAAATGTACAGAGCTTATCTTTTTA [XGTACX_site5677],9.07
12,TTATTCCTATTTGGATGTACATTTTAATATAAACAT [XGTACX_site4386],9.25
13,TTCAATTTTACATGTAGTACATAAATTATACACAAA [XGTACX_site4946],9.12
14,TTTTTTAATTTTACATGTACATACAGGTTTTTTTTT [XGTACX_site4539],9.31
15,AATGATAAAAATAAATGTACAGAATGATATTTTTTT [XGTACX_site5976],9.27
16,ATTAATAAATAAATGACACACACACCCACAAAAAAA [CACACA_site8839],9.97
17,AAAAAATTGTTTCCCTGTACTCAAAAAAAAAAAAAA [XGTACX_site8070],8.81
18,TAAATTTAAAATGACACACACTAAAATTATTTAAGT [CACACA_site4816],9.67
19,ACCTTTAATATATACACACACATAAAAAAAATATAT [CACACA_site1843],9.86
20,AAATATTCATAGTATACACACATTTATTTATAACCA [CACACA_site6502],9.51
21,TAAAAGTATTCCTTTTGTACATATAATGAAAACAAT [XGTACX_site2069],9.01
22,CTGTTTTTACTAAGTTGTACAAATGATGATACCCTA [XGTACX_site630],9.11
23,ATACAATAATATAAATGTACAAATTATATCTTAATT [XGTACX_site6004],9.22

row,Sequence,gcPBM binding intensity (ln)
1,CTATATTTTTAAAAATGTACTTTATAATAAAATACT [XGTACX_site3593],8.97
2,GTATGTATGTATGTATGTACTTATTTATTTATTTAT [XGTACX_site1921],9.54
3,TCTAATCTGGAGAAAAGTACATAGTATCTGGTAACA [XGTACX_site2540],9.17
4,TTATTCATACAATATCGTACATATATATATATATAT [XGTACX_site1185],9.36
5,ATCTTATATATATGTGTGCACGTATATATAAGCAAT [GTGCAC_site9933],9.39
6,GTACACCTATAATATACACACAACAAATATGCACAT [CACACA_site6603],9.8
7,ATTATATATATATATACACACACATATATATATATA [CACACA_site8373],9.57
8,TTATAAATAAAAAGAGTGCAATTATAAATATATATA,9.25
9,AAAAAAATACAAATATGTACACATATATATTTAAAA [XGTACX_site4729],9
10,AAATAAAATATGAACAGTACTTTTGATATAACCATT [XGTACX_site1873],9.49
11,ATTTAAAATAGAAGTTATATTTATATGGGTGAAAAA [GTGCAC_negctrl_site296],9.14
12,GGAATAACCGGACACACACACACATATATATATATA [CACACA_site5874],10
13,ATAAATTTACATTTTTTTTTTTTTTTTTTTTTTTTT [GTGCAC_negctrl_site689],9.16
14,GTATAGTACAAATAAGTGCATATAAAAGAAATACAG,9.64
15,AAAAAATATACATATTGTACATTTTTTATTAACACA [XGTACX_site6415],9.12
16,TAATTTTTATTCAGTTCACACACGCTTTAATATTAT [CACACA_site9147],9.58
17,ATTACCAAAAAAAGGTGTACAAATATAATTATGAAA [XGTACX_site44],9.27
18,TTTTCCTTTCACAATGGTACACAAATATACATGCAA [XGTACX_site7244],9.04
19,ATTTTTTTTCGTAATTGTTCTTAATGTTGAATTATA [CACACA_negctrl_site1135],9.46
20,TAGTAATATGTATCCATACACACATACATTTTATTT [CACACA_site873],9.55
21,TTTATATTTAAAGAAACATGCATTTATCATATATAC [TGCATGCA_site173],9.1
22,TACACGCATAAACACACACACACACCCATATATATA [CACACA_site8114],10.4
23,CAATTTATAAAGAAAACACACATATACCTATATACA [CACACA_site6710],9.55

row,Sequence,gcPBM binding intensity (ln)
1,TCTATAATATTTTTCACACACCATTTCCTTAAACAC [CACACA_site6747],9.6
2,AAAAAAATAAAATACAAAATGGCTATACAAAATAAA [GTGCAC_negctrl_site535],9.57
3,TTTGTTGACGAACACACACACATACATATTTATATA [CACACA_site7141],9.79
4,ATTACATATGTCGCTTGTACGCATAATTTTTTTATA [XGTACX_site5782],9.44
5,ATTTTTTTATTTTGAAGTACATAAACTTTATATATA [XGTACX_site1746],9.25
6,ATTTAAAAAAAAAGACGTACATTTATATAGAATCCT [XGTACX_site6457],9.19
7,TAGTTCCTCAAAAATTTCCTTTGTCATTTTATTCAC [GTGCAC_negctrl_site20],9.22
8,TACATAAATTAATAGTCACACACGTATTTTTTATAT [CACACA_site8806],9.45
9,TAAAGAAATTCTTCATGTACTTATTATTTCTCTTTT [XGTACX_site6817],9.1
10,GTTATACAAAATAATACATGCATGTCCTACATATAT [TGCATGCA_site320],9.44
11,TATGGAATAAATTTATCCATACATCTTATAACATAT [XGTACX_negctrl_site500],9.11
12,AGCTATATAAATAATACATGCATTGTTCAGGTATTT [TGCATGCA_site964],9.16
13,ATTTATAATATTCAAGTGCATATATATTTTTTACTT,9.32
14,AAAAAATTATATAATAATAGAACTATACATTTTATT [GTGCAC_negctrl_site645],9.09
15,ACATAATATATATATTGTACAAATATATTATTGTTA [XGTACX_site3385],9.22
16,AGCCACGGGTTATATACACACATAATCAAATAAAAT [CACACA_site6117],9.62
17,TATGTAATAAAATATACACACAATATACTTATATAT [CACACA_site3682],9.55
18,ATTTTTAATGGATAAGTGCATAATATTATGATGCAA,9.09
19,TGTATTCCTTTTTATAGTACAATTTAAAAGTATAAA [XGTACX_site2045],8.97
20,GTACGTTTCTCCAGACTGCACTATACGACTCGTACA [GTGCAC_site9771],9.21
21,AGAAAGATGCAAGAAACATGCAAAAAAAAAATTTCT [TGCATGCA_site725],9.15
22,CACAAATATACAAATACACACAAATATACTCATATA [CACACA_site5339],9.87
23,ATACAAAAAATCACATGTACATATTCTTAAATGGTA [XGTACX_site8502],9.34

row,Sequence,gcPBM binding intensity (ln)
1,AATAATAATTTGAATACACACAATAATATATATATA [CACACA_site2059],9.56
2,TTATATCATTTTCCTGCACACATAAATTTATATAAT [CACACA_site8257],9.62
3,ACAAAATATACAAAATGTACAAAATATACAAAATGT [XGTACX_site6467],9.44
4,CATATGTATTTATTCACACATATATATATATATATA [CACACA_site4207],9.31
5,TTATTCTAAAAGTGTTTGCACTTTTATAATCATATA [GTGCAC_site9929],8.85
6,TATACAGATAAATACACACACACATATATATATATA [CACACA_site4845],10
7,AATACATTTATGAGCTGTACACATTTATTTGAGCTA [XGTACX_site7695],9.13
8,AGTGTAATTTTCCACTGTACTTTTCTTGTATATAAT [XGTACX_site4201],9.45
9,ATATATATTAATATTTGTACATAAAATTATTTCAAT [XGTACX_site5364],9.05
10,AAAGTAACACACTAATATTTTAACAAATAATATATA [GTGCAC_negctrl_site132],9.43
11,TACATAAAATATATCACACATATAATATATATATAT [CACACA_site5834],9.25
12,AAAAAAAAAAAAAAATATAAATATATATATATATAT [GTGCAC_negctrl_site28],8.79
13,AATTAAATATTATAAACACACATATATATTATTTTT [CACACA_site865],9.37
14,AAACGAACATATAAATGTACATATATATACATATAT [XGTACX_site8086],9.43
15,TATGTATTAAATTTTACACACATGATTCTCTATATA [CACACA_site2298],9.71
16,ATTGTAAATATAGAAGTGCAAAAGGGTATGAAATGA,9.63
17,TACAAAAAAAATGTATTTAGGACATATATATGTTTA [XGTACX_negctrl_site455],9.02
18,TATATAAAATAATAATGTACTCATTAAAATTATAGA [XGTACX_site4507],9.06
19,AAAGAAAAAAAAAAAAAAAAAAAAAAAATTATACAT [CACACA_negctrl_site7],9.06
20,ATGTATCCAATAGGAGTGCATAATTCTATTAACACC,9.24
